In all, about 5,400 compounds went through this assay and about 190 (3.5%) showed an effect of 50% or more. The list shows a part of the results.

Drawing on PMC13083723 (Patterns, 2026), this text covers result_ITMP for 85 compounds.

The assay has as its system Vero-E6. Put plainly: primary screen, phospholipidosis by LipidTOX staining; higher = more effect of the substance. The note with it: 10 µM. An outline of the steps: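 Drug-induced phospholipidosis detected with HCS LipidTOX Red reagent in Vero-E6 cells. Compounds tested at 10 μM, with amiodarone (10 μM) as positive control and DMSO (0.1 v/v %) as vehicle.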
As to `CCCCCCN(CCCCCC)C(=O)Cc1c(-c2ccc(Cl)cc2)[nH]c2ccc(Cl)cc12`, the result_ITMP is given as 8.5%.

For the compound `C/C1=C/C[C@@H](/C(C)=C/c2csc(C)n2)OC(=O)C[C@H](O)C(C)(C)C(=O)[C@H](C)[C@@H](O)[C@@H](C)CCC1`, the result_ITMP is 1.1%.

Take `O=C1c2cccc3c2[C@H](CCC3)CN1[C@@H]1CN2CCC1CC2`: the result_ITMP is given as -0.94%.

In the case of `NCC[C@H](O)C(=O)N[C@@H]1C[C@H](N)[C@@H](O[C@H]2O[C@H](CN)[C@@H](O)[C@H](O)[C@H]2O)[C@H](O)[C@H]1O[C@H]1O[C@H](CO)[C@@H](O)[C@H](N)[C@H]1O`, the result_ITMP was 0.68%.

For the compound `NC(C(=O)O)c1cc(O)cc(O)c1` (stereo not shown), the result_ITMP is -1.39%.

Take `COC1/C=C/OC2(C)Oc3c(C)c(O)c4c(O)c(c(/C=N/N=C/N5CCCCC5)c(O)c4c3C2=O)NC(=O)/C(C)=C\C=C\C(C)C(O)C(C)C(O)C(C)C(OC(C)=O)C1C` (stereo not shown): the result_ITMP is on record as -4.56%.

Consider `CN(C/C=C/C#CC(C)(C)C)Cc1cccc2ccccc12`, for which the result_ITMP was 6.44%.

Consider `CN1CCN(c2ccc(OC(F)(F)F)c(Nc3ncc4c(n3)-c3c(c(C(N)=O)nn3CCO)CC4)c2)CC1`, for which the result_ITMP is -0.49%.

Consider `O=c1[nH]cnc2c1ncn2[C@H]1CC[C@@H](CO)O1`, for which the result_ITMP was -8.37%.

With `Fc1ccc([C@@H]2CCNC[C@H]2COc2ccc3c(c2)OCO3)cc1`, the result_ITMP came to 13.8%.

As to `NC(CO)C(=O)NNCc1ccc(O)c(O)c1O` (stereo not shown), the result_ITMP was 0.53%.

In the case of `CCCCCCCCCCC(CO)CCCCCCCC` (stereo not shown), the result_ITMP is -5.72%.

As to `CC(=O)c1ccc2c(c1)[C@H](NC(=O)c1ccc(F)c(Cl)c1)[C@H](O)C(C)(C)O2`, the result_ITMP is given as -1%.

As for `Cc1cccc(C(=O)NCN2CCN(c3ccccc3C#N)CC2)c1`, the result_ITMP is listed as -0.58%.

Consider `CN(C)CCCN1c2ccccc2CCc2ccccc21`, for which the result_ITMP worked out at 23.6%.

For `CCCC(=O)OCOC(=O)C1=C(C)NC(C)=C(C(=O)OC)C1c1cccc(Cl)c1Cl` (stereo not shown), the result_ITMP was -1.03%.

As for `CCN(CC)CCCCN1c2ccccc2Oc2ccc(Cl)cc21`, the result_ITMP was 69.7%.

For the compound `CC12CCC3C(=CCc4cc(O)ccc43)C1CCC2=O` (stereo not shown), the result_ITMP is given as 10.4%.

Consider `CN(C)C(=O)Oc1cccc([N+](C)(C)C)c1`, for which the result_ITMP was -3.43%.

In the case of `FC(F)(F)c1cccc(-c2noc(-c3cc(-c4ccccc4)c(C(F)(F)F)s3)n2)c1`, the result_ITMP is recorded as -1.95%.

For the compound `CN1CCC(OC(c2ccccc2)c2ccccc2)CC1`, the result_ITMP was found to be 26.1%.

`CC(C)(C)OC(=O)c1ncn2c1[C@@H]1CCCN1C(=O)c1c(Br)cccc1-2`: the result_ITMP is recorded as -0.94%.

Consider `CCOC(=O)[C@H](CCc1ccccc1)N[C@@H](C)C(=O)N1Cc2cc(OC)c(OC)cc2C[C@H]1C(=O)O`, for which the result_ITMP is listed as 0.49%.

For the compound `O=C(Oc1cccc2cccnc12)c1ccccc1`, the result_ITMP is given as 2.08%.

Turning to `CN1CCN(C2CCN(C(=O)Nc3cc(Oc4ccc(NC(=O)C5(C(=O)Nc6ccc(F)cc6)CC5)c(F)c4)ccn3)CC2)CC1`, the result_ITMP was 8.61%.

As for `O=c1[nH]cnc2[nH]ncc12`, the result_ITMP was 0.16%.

Turning to `Clc1ccc(Nc2nnc(Cc3ccncc3)c3ccccc23)cc1`, the result_ITMP is listed as -1.32%.

As to `Cn1cc(-c2ccc3nnc(Sc4ccc5ncccc5c4)n3n2)cn1`, the result_ITMP is on record as -7.32%.

With `Cc1cc(O)c2c(c1)C(=O)c1cc(O)cc(O)c1C2=O`, the result_ITMP is on record as -2.77%.

As to `O=C1NC(=O)/C(=C/c2cccc(C(F)(F)F)c2)S1`, the result_ITMP is given as -9.18%.

As for `C[C@@H]1CN(Cc2ncccn2)C[C@H]1c1nc2c(cnn2C2CCOCC2)c(=O)[nH]1`, the result_ITMP is reported as -0.2%.

With `CC(=O)OCC(=O)[C@@]1(O)[C@@H](C)CC2C3CCC4=CC(=O)C=C[C@]4(C)[C@@]3(F)[C@@H](O)C[C@@]21C` (stereo partly shown), the result_ITMP is recorded as 17.1%.

For the compound `C[C@@H]1CC2C3CCC4=CC(=O)C=C[C@]4(C)[C@@]3(F)[C@@H](O)C[C@]2(C)[C@@]1(O)C(=O)COP(=O)([O-])[O-]` (stereo partly shown), the result_ITMP is -3.97%.

Regarding `CCOc1ccc(-n2c(C(C)N(Cc3cccnc3)C(=O)Cc3ccc(F)c(C(F)(F)F)c3)nc3ncccc3c2=O)cc1` (racemic), the result_ITMP is listed as -4.82%.

Regarding `N[C@@H](CSCCCO)C(=O)O`, the result_ITMP is given as 0.66%.

Regarding `O=C(Oc1ccc([N+](=O)[O-])cc1)N1CCN(Cc2cccc(Oc3ccccc3)c2)CC1`, the result_ITMP is -3.68%.

Consider `C=C1/C(=C\C=C2/CCC[C@]3(C)[C@@H]([C@H](C)/C=C/[C@@H](O)C4CC4)CC[C@@H]23)C[C@@H](O)C[C@@H]1O`, for which the result_ITMP is listed as -1.18%.

For the compound `CC(=O)SCC(Cc1ccccc1)C(=O)NCC(=O)OCc1ccccc1` (stereo not shown), the result_ITMP is on record as -0.18%.

With `Cc1cc(C)cc(NC(=O)Cc2ccc(OC(C)(C)C(=O)[O-])cc2)c1`, the result_ITMP is 9.78%.

For `O=C1OC(OC(=O)c2cccnc2Nc2cccc(C(F)(F)F)c2)c2ccccc21` (stereo not shown), the result_ITMP was -10.8%.

As to `COC(=O)C1=C(C)NC(C)=C(C(=O)OC(C)C)C1c1cccc2nonc12` (stereo not shown), the result_ITMP was -1.91%.

On to `O=C(O)c1cc(N2N=C(C(F)(F)F)/C(=C/c3ccc(-c4ccccc4)o3)C2=O)ccc1Cl`, for which the result_ITMP is -0.75%.

Regarding `COc1cc(OC)c(C(=O)CCCCN2CCC3(CC2)NC(=O)NC3=O)cc1NS(=O)(=O)c1ccc(C(F)(F)F)cc1`, the result_ITMP came to 3.53%.

With `CCOC(=O)[C@@]1(CCCCCCOc2ccc(Cl)cc2)CO1`, the result_ITMP is -2.5%.

`COc1cc(Oc2ccnc3cc(OC)c(OC)cc23)ccc1NC(=O)NC(C)c1nccs1` (stereo not shown): the result_ITMP was found to be 5.17%.

Regarding `Cn1c(Nc2ccc(C(F)(F)F)cc2)nc2cc(Oc3ccnc(-c4ncc(C(F)(F)F)[nH]4)c3)ccc21`, the result_ITMP is reported as -4.12%.

Turning to `CN1CCN(c2cc3c(cc2F)c(=O)c(C(=O)O)cn3-c2ccc(F)cc2)CC1`, the result_ITMP is -4.81%.

For `O=C(O)CCCC[C@@H]1SC[C@@H]2NC(=O)N[C@@H]21`, the result_ITMP is on record as -4.26%.

On to `C[C@H](Nc1ncnc2[nH]cnc12)c1cc2cccc(Cl)c2c(=O)n1-c1ccccc1`, for which the result_ITMP was determined as 7.19%.

In the case of `Cc1cccc(OCC(O)CNC(C)(C)C)c1C` (stereo not shown), the result_ITMP is 19.8%.

Turning to `CCOc1cc(C(C)(C)C)ccc1C1=N[C@@](C)(c2ccc(Cl)cc2)[C@@](C)(c2ccc(Cl)cc2)N1C(=O)N1CCN(CCCS(C)(=O)=O)CC1`, the result_ITMP worked out at 106%.

As to `CCOC(=O)Nc1ccc(NCc2ccc(F)cc2)nc1N`, the result_ITMP was -1.77%.

Consider `N[C@@H](C(=O)O)[C@@H](OCc1ccccc1)C(=O)O.N[C@H](C(=O)O)[C@H](OCc1ccccc1)C(=O)O`, for which the result_ITMP was -1.22%.

As for `CC(C)(C(=O)O)c1ccc(C(=O)CCCN2CCC(OC(c3ccccc3)c3ccccc3)CC2)cc1`, the result_ITMP is listed as -7.29%.

In the case of `COCC(=O)Nc1c(I)c(C(=O)NCC(O)CO)c(I)c(C(=O)N(C)CC(O)CO)c1I` (stereo not shown), the result_ITMP is -10.1%.

Turning to `N[C@@H](CSSC[C@H](N)C(=O)O)C(=O)O`, the result_ITMP was -0.38%.

Turning to `NCCCC(O)(P(=O)([O-])O)P(=O)(O)O`, the result_ITMP was 0.52%.

Consider `O=C(/C=C/N1C[C@H]2C[C@@H]1CN2c1ccccn1)c1ccccc1O`, for which the result_ITMP is reported as -9.51%.

On to `COc1ccc(C(CN(C)C)C2(O)CCCCC2)cc1` (stereo not shown), for which the result_ITMP is -1.3%.

As to `CC(C)NC(=O)c1ccc(C#Cc2ccncc2)cn1`, the result_ITMP is -6%.

Take `CC(O)CCCCn1c(=O)c2c(ncn2C)n(C)c1=O` (stereo not shown): the result_ITMP was -8.3%.

Take `CC(=O)Oc1cc2c(s1)CCN(C(C(=O)C1CC1)c1ccccc1F)C2` (stereo not shown): the result_ITMP is 0.85%.

For `CS(=O)(=O)N(Cc1ccco1)CC(O)Cn1c2ccccc2c2ccccc21` (stereo not shown), the result_ITMP stood at 0.36%.

For `OC[C@H]1O[C@@H](n2cnc3c(NC4CCCC4)nc(Cl)nc32)[C@H](O)[C@@H]1O`, the result_ITMP is -5.56%.

For `CC(C)C(=O)Nc1ccc([N+](=O)[O-])c(C(F)(F)F)c1`, the result_ITMP is reported as -4.95%.

`O=C([O-])[C@@H](O)[C@@H](O)[C@H](O)[C@@H](O)C(=O)[O-]`: the result_ITMP was -1.82%.

For the compound `Cc1ccccc1/N=N/c1ccc(/N=N/c2c(O)ccc3ccccc23)c(C)c1`, the result_ITMP is -3.54%.

Consider `C#C[C@]1(O)CC[C@H]2[C@@H]3CCC4=CCCC[C@@H]4[C@H]3C(=C)C[C@@]21CC`, for which the result_ITMP was determined as 0.82%.

For `C1CCC(N/C(=N/C23CC4CC(CC(C4)C2)C3)N2CCOCC2)CC1`, the result_ITMP is listed as -0.26%.

For the compound `COc1cc(C)c2c(Oc3cccc(C(F)(F)F)c3)c(OC)cc(NC(C)CCCN)c2n1` (stereo not shown), the result_ITMP is listed as 51.6%.

For the compound `C[C@H](c1ccc(F)cc1CCCC(=O)O)N(c1cc(F)ccc1F)S(=O)(=O)c1ccc(Cl)cc1`, the result_ITMP was -2.3%.

With `CC1=CC[C@@H](C(C)(C)O)C[C@@H]1O`, the result_ITMP is given as 0.79%.

Regarding `CC1(C)CCC2=C(O1)c1ccccc1C(=O)C2=O`, the result_ITMP was -1.72%.

For `N[C@@H](Cc1cc(-c2ccc(Cl)cc2Cl)cc(CP(=O)(O)O)c1O)C(=O)O`, the result_ITMP is -1.4%.

Turning to `C[n+]1ccccc1CN=O`, the result_ITMP is 8.51%.

On to `CCCC1(CCC)CCC2(CCN(CCCN(CC)CC)C2)CC1`, for which the result_ITMP is reported as 109%.

For `Cc1onc(-c2ccccc2)c1C(=O)NC1C(=O)N2[C@@H]1SC(C)(C)[C@@H]2C(=O)[O-]` (stereo partly shown), the result_ITMP is -4.06%.

In the case of `OCCN1C[C@H](O)[C@@H](O)[C@H](O)[C@H]1CO`, the result_ITMP is on record as -8.13%.

As for `CCC(=O)NC1CCc2cccc(OC)c2C1` (stereo not shown), the result_ITMP is -1.24%.

Regarding `S=C(NCc1ccc2c(c1)OCO2)N1CCN(c2ncnc3c2oc2ccccc23)CC1`, the result_ITMP is reported as -1.09%.

For `CO/N=C(\C(=O)N[C@@H]1C(=O)N2C(C(=O)O)=C(C)CS[C@H]12)c1csc(N)n1`, the result_ITMP is listed as -9.72%.

As for `CCC(=O)O[C@H]1CCC2C3CCC4=CC(=O)CC[C@]4(C)C3CC[C@@]21C` (stereo partly shown), the result_ITMP is 5.62%.

As to `Cc1sc2c(c1C)C(c1ccc(Cl)cc1)=N[C@@H](CC(=O)Nc1ccc(O)cc1)c1nnc(C)n1-2`, the result_ITMP is reported as 16.1%.

With `CCNCC(O)c1cccc(O)c1` (stereo not shown), the result_ITMP was -2.8%.

Consider `CCCC[C@@H](NC(=O)[C@@H](Cc1cn(C(=O)OC)c2ccccc12)NC(=O)[C@H](CC(C)(C)C)NC(=O)N1[C@H](C)CCC[C@@H]1C)C(=O)[O-]`, for which the result_ITMP was -3.76%.
